Data: ChEMBL document CHEMBL1201862, “PubChem BioAssay data set” (2004)

system: NCI-H322M; test: inhibition of tumour cell growth, NCI panel, 48 h

Compound | GI50
Oc1cc(-c2cccc(OC(F)(F)F)c2)nc2ccc(N3CCCC3)cc12 | active: 0.00102 µM
OC1(c2ccc(Cl)cc2)c2c(c3ccccc3c3ccccc23)C2=NCCN21 (stereo not given) | inactive: 19.8 µM
Cn1c(=O)c(-c2ccccc2)c(O)c2ccccc21 | inactive: > 100 µM
O=[N+]([O-])/C(C(Cl)=C(Cl)Cl)=C1\Nc2ccccc2O1 | inactive: > 100 µM
COc1nc(Cl)c(Cl)c(Cl)n1.COc1nc(Cl)nc(Cl)c1Cl | inactive: 9.12 µM
CC(C)(CO)NC(=O)c1cccc(C(=O)NC(C)(C)CO)c1Br | inactive: > 100 µM
CCOC(=O)CCn1[nH]c(=O)c(Cl)c(Cl)c1=O | inactive: > 100 µM
Cn1c2ccc([N+](=O)[O-])cc2c(=O)n1Cc1ccccc1F | inactive: > 100 µM
O=C1NC(O)c2cc3ccccc3cc2O1 (stereo not given) | inactive: 47.4 µM
Cc1c2c(n(CCc3ccc(Cl)cc3)c1C)NN=C(C#N)S2(=O)=O | inactive: > 100 µM
CC(=O)O[C@H]1CC[C@@]2(C)C(=CC[C@@H]3[C@@H]2CC[C@]2(C)C(=O)/C(=C\c4ccccc4)C[C@@H]32)C1 | inactive: > 100 µM
COC(=O)C1=COC2OC3CC1C2C(C)O3 (stereo not given) | inactive: > 100 µM
CN1C=C(C(N)=O)C2CC(O)[C@@](NC(=O)CS(N)(=O)=O)(C(=O)O)C2C1 (stereo not given in full) | inactive: 3.64 µM
Cc1cc(Cl)ccc1/N=C1/NC(=O)C(CC(=O)Nc2cccc(C)c2C)S1 (stereo not given) | inactive: 31.8 µM
N#Cc1c(Cl)cc(Cl)n2c1nc1ccccc12 | inactive: 21.6 µM
CC(C)(C)[Si](C)(C)OC1(CCc2ccccc2OS(=O)(=O)C(F)(F)F)CCCC=C1COCc1ccccc1 (stereo not given) | inactive: > 100 µM
N#C/C(=C\c1ccc(Cl)cc1)c1nc2ccccc2c(=O)[nH]1 | inactive: > 100 µM
O=C(O[C@@H](/C=C/c1ccccc1)P1(=O)N(Cc2ccccc2)[C@H]2CCCC[C@@H]2N1Cc1ccccc1)c1ccccc1 | inactive: 6.19 µM
CC(C)C(/C=C/c1ccc(Cl)cc1)=N\NC(=O)N/N=C(/C=C/c1ccc(Cl)cc1)C(C)C | inactive: 27.3 µM
Cc1cc(Cl)cc2c1NC(=O)C2(O)CC(=O)c1ccco1 (stereo not given) | inactive: > 55.7 µM
CN(C)CCNC(=O)Cn1ccc(=O)c2ccc([N+](=O)[O-])cc21 | inactive: > 100 µM
COc1ccc(-c2nnc(-c3ccncc3)o2)cc1 | inactive: > 100 µM

Compound | GI50
COc1ccc(\N=C/C=C/C(=C/COC(C)=O)OC(C)=O)cc1 | inactive: 57.8 µM
NNC(=S)N/N=C(\CC1OC(=O)c2ccccc21)c1ccccc1O (stereo not given) | inactive: 31.1 µM
C1CSCCCSCCSCCCSC1 | inactive: > 100 µM
O=P(CCOc1ccccc1OCCP(=O)(c1ccccc1)c1ccc2c(c1)OCCOCCOCCOCCO2)(c1ccccc1)c1ccc2c(c1)OCCOCCOCCOCCO2 (stereo not given) | inactive: > 100 µM
c1ccc(C2=NCCN2)c(C2=NCCN2)c1 | inactive: > 100 µM
CC1CC2C3CC(F)C4=CC(=O)C=CC4(C)C3(F)C(O)CC2(C)C1(O)C(=O)COC(=O)C(C)(C)C (stereo not given) | inactive: > 100 µM
CC12CCC([C@H](Nc3cc(C(F)(F)F)cc(C(F)(F)F)c3)C1=O)C2(C)C (stereo not given in full) | inactive: > 100 µM
CC1(C)OC2OC(C(COS(=O)(=O)C(F)(F)F)N=[N+]=[N-])C(OC(=O)c3ccccc3)C2O1 (stereo not given) | inactive: > 100 µM
CCN(CC)CCn1c(=O)c2c(C)c3oc4ccccc4oc3c(C)c2c1=O | inactive: > 100 µM
CCOC(=O)c1csc(NC(=O)C(C)N2CCCCC2)n1 (stereo not given) | inactive: > 100 µM
CCOC(=O)N1C=NC23C(c4ccccc4)C(c4ccccc4)C12C(=O)N(C)C(=O)N3C (stereo not given) | inactive: > 100 µM
CCCNC(=O)Nc1c([N+](=O)[O-])cc(C(F)(F)F)cc1[N+](=O)[O-] | inactive: > 100 µM
O=C1CSC(/C=C/c2ccccc2)N1c1nc2cc3sc(N4C(=O)CSC4/C=C/c4ccccc4)nc3cc2s1 (stereo not given) | inactive: 13.7 µM
CC(C)=CCC/C(C)=C/CC/C(C)=C/CC/C(=C/CC/C(C)=C\CC/C(C)=C/CC/C(C)=C/CC/C(C)=C/Cc1cc(O)ccc1O)CO | inactive: 9.68 µM
COc1cc([N+](=O)[O-])ccc1NC(=O)C(F)(F)F | inactive: > 100 µM
C#Cc1cccc(NC(=O)/C=C\C(=O)O)c1 | inactive: > 100 µM
Cc1nc2sc(C(=O)c3ccc(Cl)cc3)c(N)c2c(-c2ccccc2Cl)c1C(=O)Nc1ccccc1 | inactive: 22.9 µM
CCOC(=O)/C(=C\NC#N)c1nc2ccccc2[nH]1 | inactive: > 100 µM
CCOC(=O)c1cc(Cl)ccc1OC(N)=O | inactive: > 100 µM
Cc1cc(S(=O)(=O)[N-]/C(=N/S(=O)(=O)c2ccc(Cl)cc2)[n+]2ccc(N(C)C)cc2)c(S)cc1Cl | inactive: 55.3 µM
COc1nn(Cc2ccccc2F)c2ccc([N+](=O)[O-])cc12 | inactive: > 100 µM
C=C=C(Sc1ccccc1)C(C)(C)OC(C)=O | inactive: 20.4 µM

Compound | GI50
CC1=C(C(=O)NCc2ccccc2)C(c2ccco2)C(C(=O)NCc2ccccc2)=C(C)N1 | inactive: 65.5 µM
Clc1nc2c(N3CCCC3)nc(N3CCNCC3)nc2[nH]1 | inactive: 16.2 µM
NC(CSC(=O)c1ccccc1)C(=O)O (stereo not given) | inactive: > 100 µM
Cc1cccc2nc3cccc(C(=O)NCCN(C)C)c3nc12 | active: 0.845 µM
COC(=O)Cc1cc(O)c(C/C=C(\C)CC/C=C(\C)C(O)C(=O)C=C(C)C)cc1O (stereo not given) | inactive: 31.7 µM
CCCCC1(N=[N+]=[N-])C(=O)c2cccc3c2N(CCC3)C1=O (stereo not given) | inactive: > 100 µM
Cc1cc(C)c(-n2[nH]c(=O)n(C)c2=O)c(C)c1 | inactive: > 100 µM
O=c1cc[nH]c2c1ccc1ncccc12 | inactive: > 100 µM
O=C(Nc1ccccc1)N1CCN(C(=O)Nc2ccccc2)C1=S | inactive: 40.4 µM
Cc1cc2nc3c(C(O)CO)nn(-c4ccccc4)c3nc2cc1C (stereo not given) | inactive: 17.3 µM
CC(=O)/N=C1\N/C(=C/c2cc([N+](=O)[O-])ccc2O)CN1C | inactive: > 100 µM
CCN(CC)C(=O)C(C)n1cc(C)c(=O)[nH]c1=O (stereo not given) | inactive: > 100 µM
O=C1N[C@@H]([C@H](CCCCCO)OC(=O)c2ccccc2)CO1 | inactive: > 100 µM
CCOC(=O)c1nc2cc(C(F)(F)F)ccc2nc1Oc1ccc(F)cc1 | inactive: > 100 µM
Cc1ccc(C(=O)Nc2ccc(S(=O)(=O)O)c3cc(S(=O)(=O)O)cc(S(=O)(=O)O)c23)cc1N | inactive: > 100 µM
O=S(=O)(O)c1ccc(-c2c3nc(c(-c4ccc(S(=O)(=O)O)cc4)c4ccc([nH]4)c(-c4ccc(S(=O)(=O)O)cc4)c4nc(c(-c5ccc(S(=O)(=O)O)cc5)c5ccc2[nH]5)C=C4)C=C3)cc1 | inactive: 17.7 µM
CC(C(=O)C(C)O[Si](c1ccccc1)(c1ccccc1)C(C)(C)C)=P(c1ccccc1)(c1ccccc1)c1ccccc1 (stereo not given) | inactive: 3.65 µM
CC1ON2CCCC2[C@H]1C(=O)N1C2CC3CCC2(CS1(=O)=O)C3(C)C (stereo not given in full) | inactive: > 100 µM
CC(=O)c1cccc(NC(=O)C(=O)c2c(O)oc3ccccc3c2=O)c1 | inactive: > 100 µM
COc1ccc(C2C(Cl)C(=O)N2NC(=O)c2ccccc2O)cc1OC (stereo not given) | inactive: 43.5 µM
N/C(S)=N/N=C/c1cc(CN2CCOCC2)c(N)cn1 | inactive: 39.8 µM

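How tested: cells in 96-well plates exposed to compound for 48 hours at five concentrations. GI50 = concentration required for 50% inhibition of growth.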 Activity calls are given as the source filed them. Rule as the data show it: active = GI50 up to about 1.1 µM and inactive = higher.
